These are yes or no findings as the source states them, for the method shown. Binding seen in cells or lysates may run through a third protein. Some entries that bind do so weakly or less than the wild type. For part of these data: Sequences can lack the tags named with a protein.
B1: PBP1a with three Flag tags at the C terminus (chromosomal) (enzyme, UniProt P02918 1-850)
chain: MKFVKYFLILAVCCILLGAGSIYGLYRYIEPQLPDVATLKDVRLQIPMQIYSADGELIAQYGEKRRIPVTLDQIPPEMVKAFIATEDSRFYEHHGVDPVGIFRAASVALFSGHASQGASTITQQLARNFFLSPERTLMRKIKEVFLAIRIEQLLTKDEILELYLNKIYLGYRAYGVGAAAQVYFGKTVDQLTLNEMAVIAGLPKAPSTFNPLYSMDRAVARRNVVLSRMLDEGYITQQQFDQTRTEAINANYHAPEIAFSAPYLSEMVRQEMYNRYGESAYEDGYRIYTTITRKVQQAAQQAVRNNVLDYDMRHGYRGPANVLWKVGESAWDNNKITDTLKALPTYGPLLPAAVTSANPQQATAMLADGSTVALSMEGVRWARPYRSDTQQGPTPRKVTDVLQTGQQIWVRQVGDAWWLAQVPEVNSALVSINPQNGAVMALVGGFDFNQSKFNRATQALRQVGSNIKPFLYTAAMDKGLTLASMLNDVPISRWDASAGSDWQPKNSPPQYAGPIRLRQGLGQSKNVVMVRAMRAMGVDYAAEYLQRFGFPAQNIVHTESLALGSASFTPMQVARGYAVMANGGFLVDPWFISKIENDQGGVIFEAKPKVACPECDIPVIYGDTQKSNVLENNDVEDVAISREQQNVSVPMPQLEQANQALVAKTGAQEYAPHVINTPLAFLIKSALNTNIFGEPGWQGTGWRAGRDLQRRDIGGKTGTTNSSKDAWFSGYGPGVVTSVWIGFDDHRRNLGHTTASGAIKDQISGYEGGAKSAQPAWDAYMKAVLEGVPEQPLTPPPGIVTVNIDRSTGQLANGGNSREEYFIEGTQPTQQAVHEVGTTIIDNGEAQELF
B2: PBP1b with three Flag tags at the C terminus (chromosomal) (enzyme, UniProt P02919 1-844)
chain: MAGNDREPIGRKGKPTRPVKQKVSRRRYEDDDDYDDYDDYEDEEPMPRKGKGKGKGRKPRGKRGWLWLLLKLAIVFAVLIAIYGVYLDQKIRSRIDGKVWQLPAAVYGRMVNLEPDMTISKNEMVKLLEATQYRQVSKMTRPGEFTVQANSIEMIRRPFDFPDSKEGQVRARLTFDGDHLATIVNMENNRQFGFFRLDPRLITMISSPNGEQRLFVPRSGFPDLLVDTLLATEDRHFYEHDGISLYSIGRAVLANLTAGRTVQGASTLTQQLVKNLFLSSERSYWRKANEAYMALIMDARYSKDRILELYMNEVYLGQSGDNEIRGFPLASLYYFGRPVEELSLDQQALLVGMVKGASIYNPWRNPKLALERRNLVLRLLQQQQIIDQELYDMLSARPLGVQPRGGVISPQPAFMQLVRQELQAKLGDKVKDLSGVKIFTTFDSVAQDAAEKAAVEGIPALKKQRKLSDLETAIVVVDRFSGEVRAMVGGSEPQFAGYNRAMQARRSIGSLAKPATYLTALSQPKIYRLNTWIADAPIALRQPNGQVWSPQNDDRRYSESGRVMLVDALTRSMNVPTVNLGMALGLPAVTETWIKLGVPKDQLHPVPAMLLGALNLTPIEVAQAFQTIASGGNRAPLSALRSVIAEDGKVLYQSFPQAERAVPAQAAYLTLWTMQQVVQRGTGRQLGAKYPNLHLAGKTGTTNNNVDTWFAGIDGSTVTITWVGRDNNQPTKLYGASGAMSIYQRYLANQTPTPLNLVPPEDIADMGVDYDGNFVCSGGMRILPVWTSDPQSLCQQSEMQQQPSGNPFDQSSQPQQQPQQQPAQQEQKDSDGVAGWIKDMFGSN
B3: PBP2 with three Flag tags at the C terminus (chromosomal) (enzyme, UniProt P0AD65 1-633)
chain: MKLQNSFRDYTAESALFVRRALVAFLGILLLTGVLIANLYNLQIVRFTDYQTRSNENRIKLVPIAPSRGIIYDRNGIPLALNRTIYQIEMMPEKVDNVQQTLDALRSVVDLTDDDIAAFRKERARSHRFTSIPVKTNLTEVQVARFAVNQYRFPGVEVKGYKRRYYPYGSALTHVIGYVSKINDKDVERLNNDGKLANYAATHDIGKLGIERYYEDVLHGQTGYEEVEVNNRGRVIRQLKEVPPQAGHDIYLTLDLKLQQYIETLLAGSRAAVVVTDPRTGGVLALVSTPSYDPNLFVDGISSKDYSALLNDPNTPLVNRATQGVYPPASTVKPYVAVSALSAGVITRNTTLFDPGWWQLPGSEKRYRDWKKWGHGRLNVTRSLEESADTFFYQVAYDMGIDRLSEWMGKFGYGHYTGIDLAEERSGNMPTREWKQKRFKKPWYQGDTIPVGIGQGYWTATPIQMSKALMILINDGIVKVPHLLMSTAEDGKQVPWVQPHEPPVGDIHSGYWELAKDGMYGVANRPNGTAHKYFASAPYKIAAKSGTAQVFGLKANETYNAHKIAERLRDHKLMTAFAPYNNPQVAVAMILENGGAGPAVGTLMRQILDHIMLGDNNTDLPAENPAVAAAEDH
B4: PBP3 with three Flag tags at the C terminus (chromosomal) (enzyme, UniProt P0AD68 1-577)
chain: MKAAAKTQKPKRQEEHANFISWRFALLCGCILLALAFLLGRVAWLQVISPDMLVKEGDMRSLRVQQVSTSRGMITDRSGRPLAVSVPVKAIWADPKEVHDAGGISVGDRWKALANALNIPLDQLSARINANPKGRFIYLARQVNPDMADYIKKLKLPGIHLREESRRYYPSGEVTAHLIGFTNVDSQGIEGVEKSFDKWLTGQPGERIVRKDRYGRVIEDISSTDSQAAHNLALSIDERLQALVYRELNNAVAFNKAESGSAVLVDVNTGEVLAMANSPSYNPNNLSGTPKEAMRNRTITDVFEPGSTVKPMVVMTALQRGVVRENSVLNTIPYRINGHEIKDVARYSELTLTGVLQKSSNVGVSKLALAMPSSALVDTYSRFGLGKATNLGLVGERSGLYPQKQRWSDIERATFSFGYGLMVTPLQLARVYATIGSYGIYRPLSITKVDPPVPGERVFPESIVRTVVHMMESVALPGGGGVKAAIKGYRIAIKTGTAKKVGPDGRYINKYIAYTAGVAPASQPRFALVVVINDPQAGKYYGGAVSAPVFGAIMGGVLRTMNIEPDALTTGDKNEFV
B5: overexpressed full-length PBP1a (enzyme, UniProt P02918 1-850)
chain: MKFVKYFLILAVCCILLGAGSIYGLYRYIEPQLPDVATLKDVRLQIPMQIYSADGELIAQYGEKRRIPVTLDQIPPEMVKAFIATEDSRFYEHHGVDPVGIFRAASVALFSGHASQGASTITQQLARNFFLSPERTLMRKIKEVFLAIRIEQLLTKDEILELYLNKIYLGYRAYGVGAAAQVYFGKTVDQLTLNEMAVIAGLPKAPSTFNPLYSMDRAVARRNVVLSRMLDEGYITQQQFDQTRTEAINANYHAPEIAFSAPYLSEMVRQEMYNRYGESAYEDGYRIYTTITRKVQQAAQQAVRNNVLDYDMRHGYRGPANVLWKVGESAWDNNKITDTLKALPTYGPLLPAAVTSANPQQATAMLADGSTVALSMEGVRWARPYRSDTQQGPTPRKVTDVLQTGQQIWVRQVGDAWWLAQVPEVNSALVSINPQNGAVMALVGGFDFNQSKFNRATQALRQVGSNIKPFLYTAAMDKGLTLASMLNDVPISRWDASAGSDWQPKNSPPQYAGPIRLRQGLGQSKNVVMVRAMRAMGVDYAAEYLQRFGFPAQNIVHTESLALGSASFTPMQVARGYAVMANGGFLVDPWFISKIENDQGGVIFEAKPKVACPECDIPVIYGDTQKSNVLENNDVEDVAISREQQNVSVPMPQLEQANQALVAKTGAQEYAPHVINTPLAFLIKSALNTNIFGEPGWQGTGWRAGRDLQRRDIGGKTGTTNSSKDAWFSGYGPGVVTSVWIGFDDHRRNLGHTTASGAIKDQISGYEGGAKSAQPAWDAYMKAVLEGVPEQPLTPPPGIVTVNIDRSTGQLANGGNSREEYFIEGTQPTQQAVHEVGTTIIDNGEAQELF
B6: overexpressed full-length PBP1b (enzyme, UniProt P02919 1-844)
chain: MAGNDREPIGRKGKPTRPVKQKVSRRRYEDDDDYDDYDDYEDEEPMPRKGKGKGKGRKPRGKRGWLWLLLKLAIVFAVLIAIYGVYLDQKIRSRIDGKVWQLPAAVYGRMVNLEPDMTISKNEMVKLLEATQYRQVSKMTRPGEFTVQANSIEMIRRPFDFPDSKEGQVRARLTFDGDHLATIVNMENNRQFGFFRLDPRLITMISSPNGEQRLFVPRSGFPDLLVDTLLATEDRHFYEHDGISLYSIGRAVLANLTAGRTVQGASTLTQQLVKNLFLSSERSYWRKANEAYMALIMDARYSKDRILELYMNEVYLGQSGDNEIRGFPLASLYYFGRPVEELSLDQQALLVGMVKGASIYNPWRNPKLALERRNLVLRLLQQQQIIDQELYDMLSARPLGVQPRGGVISPQPAFMQLVRQELQAKLGDKVKDLSGVKIFTTFDSVAQDAAEKAAVEGIPALKKQRKLSDLETAIVVVDRFSGEVRAMVGGSEPQFAGYNRAMQARRSIGSLAKPATYLTALSQPKIYRLNTWIADAPIALRQPNGQVWSPQNDDRRYSESGRVMLVDALTRSMNVPTVNLGMALGLPAVTETWIKLGVPKDQLHPVPAMLLGALNLTPIEVAQAFQTIASGGNRAPLSALRSVIAEDGKVLYQSFPQAERAVPAQAAYLTLWTMQQVVQRGTGRQLGAKYPNLHLAGKTGTTNNNVDTWFAGIDGSTVTITWVGRDNNQPTKLYGASGAMSIYQRYLANQTPTPLNLVPPEDIADMGVDYDGNFVCSGGMRILPVWTSDPQSLCQQSEMQQQPSGNPFDQSSQPQQQPQQQPAQQEQKDSDGVAGWIKDMFGSN

Experiments:
[1] = target: T1, His-tagged DacA (PG carboxypeptidase DacA, without its signal sequence) (E. coli) (UniProt P0AEB2); assay: pull-down; supernatant of MG1655 chromosomal PBP-3×Flag cells mixed with supernatant of ER2566 cells expressing His-tagged DacA or DacA(ΔC) (nontagged as control); Talon metal affinity resin; buffer A (50 mM Tris-HCl pH 8.0, 150 mM NaCl) with 1% n-dodecyl-β-D-maltoside; elution with 200 mM …; Western blot with anti-Flag antibody
T1 sequence: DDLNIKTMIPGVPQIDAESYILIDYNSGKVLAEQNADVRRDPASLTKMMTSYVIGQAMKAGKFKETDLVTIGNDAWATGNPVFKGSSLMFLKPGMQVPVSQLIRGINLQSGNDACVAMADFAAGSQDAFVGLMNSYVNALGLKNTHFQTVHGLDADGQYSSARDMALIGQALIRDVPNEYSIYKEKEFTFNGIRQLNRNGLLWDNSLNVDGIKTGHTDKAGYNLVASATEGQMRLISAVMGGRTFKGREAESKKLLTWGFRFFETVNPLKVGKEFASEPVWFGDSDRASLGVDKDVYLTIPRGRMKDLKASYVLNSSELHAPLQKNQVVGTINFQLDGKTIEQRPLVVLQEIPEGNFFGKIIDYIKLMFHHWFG

[2] = target: His-tagged DacA(ΔC) (DacA without the C-terminal membrane-anchoring domain) (E. coli) (UniProt P0AEB2); assay: as above
[3] = target: T1, His-tagged DacA (PG carboxypeptidase DacA, without its signal sequence) (E. coli); assay: pull-down; supernatant of ER2566 cells overexpressing full-length PBP1a or PBP1b mixed with supernatant of ER2566 cells expressing His-tagged DacA or DacA(ΔC); Talon resin; eluted proteins separated on 4 to 20% gradient Tris-glycine polyacrylamide gels
[4] = target: His-tagged DacA(ΔC) (DacA without the C-terminal membrane-anchoring domain) (E. coli) (UniProt P0AEB2); assay: as above

Binder	binding [1]	binding [2]	binding [3]	binding [4]
B1	binds	no binding	–	–
B2	binds	no binding	–	–
B3	binds	no binding	–	–
B4	binds	no binding	–	–
B5	–	–	binds	no binding
B6	–	–	binds	no binding

— publication PMC9430164
